Data published in publication PMC4260354.
No constants are given. Whether binding was seen depends on the method and setting. Binding seen in cells or lysates may run through a third protein. Some entries that bind do so weakly or less than the wild type. Tags and fused reporters may be left off the sequences shown. One block for each binder: values may come before it.

Tests used:
GST-SUVR1 (Arabidopsis) = target: T1, GST-SUVR1 (Arabidopsis) (UniProt Q946J2); test: pull-down; GST pull-down with bacterially expressed GST fusion as bait and His-tagged protein as prey; GST as control
T1 sequence: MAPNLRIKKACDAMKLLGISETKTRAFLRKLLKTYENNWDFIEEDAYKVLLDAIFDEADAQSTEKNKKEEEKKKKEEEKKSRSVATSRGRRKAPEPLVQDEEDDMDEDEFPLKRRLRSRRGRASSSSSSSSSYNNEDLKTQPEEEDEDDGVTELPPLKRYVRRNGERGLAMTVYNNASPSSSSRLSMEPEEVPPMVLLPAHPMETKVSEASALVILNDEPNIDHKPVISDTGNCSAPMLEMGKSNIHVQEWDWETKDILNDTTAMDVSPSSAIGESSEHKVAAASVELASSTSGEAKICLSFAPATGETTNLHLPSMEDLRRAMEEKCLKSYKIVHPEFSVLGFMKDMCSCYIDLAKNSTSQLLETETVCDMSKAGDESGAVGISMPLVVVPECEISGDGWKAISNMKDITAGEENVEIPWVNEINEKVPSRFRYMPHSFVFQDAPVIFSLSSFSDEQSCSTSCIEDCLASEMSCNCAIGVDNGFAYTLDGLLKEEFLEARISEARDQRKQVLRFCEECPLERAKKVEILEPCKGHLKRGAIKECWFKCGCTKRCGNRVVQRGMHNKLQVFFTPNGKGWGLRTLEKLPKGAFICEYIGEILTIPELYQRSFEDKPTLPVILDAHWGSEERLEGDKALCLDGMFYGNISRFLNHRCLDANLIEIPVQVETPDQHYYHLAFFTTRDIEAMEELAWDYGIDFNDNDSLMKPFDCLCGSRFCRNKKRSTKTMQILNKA

[1] = target: T2, AGO4 (Arabidopsis (endogenous in the SUVR2-Flag transgenic plants)) (UniProt Q9ZVD5); test: co-IP; protein extracts of Arabidopsis transgenic plants (or F1 hybrids with two tagged proteins); precipitated with anti-c-Myc agarose, anti-Flag M1 agarose or anti-AGO4 conjugated agarose; western blotting
T2 sequence: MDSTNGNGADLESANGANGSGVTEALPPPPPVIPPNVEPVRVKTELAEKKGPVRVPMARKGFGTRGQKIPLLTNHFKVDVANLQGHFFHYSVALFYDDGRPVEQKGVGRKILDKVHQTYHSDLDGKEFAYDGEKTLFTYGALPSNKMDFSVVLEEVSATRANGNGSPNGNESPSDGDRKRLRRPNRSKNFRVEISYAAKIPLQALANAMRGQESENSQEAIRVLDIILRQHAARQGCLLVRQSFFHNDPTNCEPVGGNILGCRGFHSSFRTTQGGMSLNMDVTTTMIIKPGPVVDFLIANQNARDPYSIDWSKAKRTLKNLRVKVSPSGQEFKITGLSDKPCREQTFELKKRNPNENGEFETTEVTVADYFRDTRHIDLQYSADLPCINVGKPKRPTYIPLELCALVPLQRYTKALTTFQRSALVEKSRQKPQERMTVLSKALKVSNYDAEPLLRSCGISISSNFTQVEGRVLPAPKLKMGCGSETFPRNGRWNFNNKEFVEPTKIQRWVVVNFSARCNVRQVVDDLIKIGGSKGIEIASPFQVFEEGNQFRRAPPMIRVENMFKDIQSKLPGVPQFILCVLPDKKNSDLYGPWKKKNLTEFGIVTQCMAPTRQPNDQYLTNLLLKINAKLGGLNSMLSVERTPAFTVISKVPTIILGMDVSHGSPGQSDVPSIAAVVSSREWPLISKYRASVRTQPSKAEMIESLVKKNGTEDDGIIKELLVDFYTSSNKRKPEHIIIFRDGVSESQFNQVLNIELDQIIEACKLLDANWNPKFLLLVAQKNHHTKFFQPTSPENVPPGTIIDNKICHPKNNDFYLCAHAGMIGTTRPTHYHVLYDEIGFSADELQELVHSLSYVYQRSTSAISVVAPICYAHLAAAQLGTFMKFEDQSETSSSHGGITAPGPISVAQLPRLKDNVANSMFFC

SUVR2-Flag (Arabidopsis) [2] = target: T3, SUVR2-Flag (Arabidopsis) (UniProt Q9FNC7); test: co-IP; protein extracts of Arabidopsis plants harboring two tagged proteins; anti-c-Myc agarose, anti-Flag M1 agarose or anti-AGO4 conjugated agarose; western blotting
T3 sequence: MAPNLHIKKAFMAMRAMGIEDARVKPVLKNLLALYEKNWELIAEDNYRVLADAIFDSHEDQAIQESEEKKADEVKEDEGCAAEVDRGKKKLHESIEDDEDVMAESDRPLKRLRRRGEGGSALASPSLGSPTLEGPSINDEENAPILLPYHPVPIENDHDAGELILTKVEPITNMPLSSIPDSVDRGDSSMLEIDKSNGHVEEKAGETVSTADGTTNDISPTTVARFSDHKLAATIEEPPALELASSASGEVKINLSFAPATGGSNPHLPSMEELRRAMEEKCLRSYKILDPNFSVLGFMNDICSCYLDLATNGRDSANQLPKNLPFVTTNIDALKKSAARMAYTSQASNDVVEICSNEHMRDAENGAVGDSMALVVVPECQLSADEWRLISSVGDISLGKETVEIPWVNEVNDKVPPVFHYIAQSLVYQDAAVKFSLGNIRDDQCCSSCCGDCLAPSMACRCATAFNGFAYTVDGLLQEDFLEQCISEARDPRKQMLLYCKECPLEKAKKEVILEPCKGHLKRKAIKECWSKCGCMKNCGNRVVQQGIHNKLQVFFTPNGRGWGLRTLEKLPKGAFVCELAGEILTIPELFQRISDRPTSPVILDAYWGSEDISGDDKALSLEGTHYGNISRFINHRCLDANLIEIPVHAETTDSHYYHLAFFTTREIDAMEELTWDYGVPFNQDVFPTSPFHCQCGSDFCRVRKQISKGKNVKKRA

SUVR2-Flag (Arabidopsis) [3] = target: T3, SUVR2-Flag (Arabidopsis); test: co-IP; protein extracts of Arabidopsis transgenic plants (or F1 hybrids with two tagged proteins); precipitated with anti-c-Myc agarose, anti-Flag M1 agarose or anti-AGO4 conjugated agarose; western blotting

binding [1]: no binding
B2: SUVR2-Flag (protein, UniProt Q9FNC7 1-717)
chain: T3 sequence

binding (GST-SUVR1 (Arabidopsis)): binds
B3: His-SUVR2 (full-length SUVR2 in fusion with the His tag) (protein, UniProt Q9FNC7 1-717)
chain: T3 sequence

binding (SUVR2-Flag (Arabidopsis) [2]): no binding | binding (SUVR2-Flag (Arabidopsis) [3]): no binding
B5: RDM1-Myc (protein, UniProt Q9LUJ3 1-163)
chain: MQSSMTMELRPSGDSGSSDVDAEISDGFSPLDTSHRDVADEGSLLRRAEMYQDYMKQVPIPTNRGSLIPFTSWVGLSISMKQLYGQPLHYLTNVLLQRWDQSRFGTDSEEQRLDSIIHPTKAEATIWLVEEIHRLTPSHLHMALLWRSDPMYHSFIDPIFPEK

Further lines, the binder ahead of its results:

B1: His-SUVR1 (protein, UniProt Q946J2 1-734)
chain: T1 sequence
binding (GST-SUVR1 (Arabidopsis)): binds

B4: CHR19-Myc (protein, UniProt Q9ZUL5 1-763)
chain: MKRDFDEISEEEWSQHSFNASRVLKRPRTPKKTRAATNPTPSIESFAFRRPSTAMTIESNSSDGDCVEIEDLGDSDSDVKIVNGEDLLLEDEEEVEETKVVMRAARVGRRFVIEDEEASDDDDDEAESSASEDEFGGGGGGSGGRRGEDEDVVGKALQKCAKISADLRKELYGTSSGVTDRYSEVETSTVRIVTQNDIDDACKAEDSDFQPILKPYQLVGVNFLLLLYKKGIEGAILADEMGLGKTIQAITYLTLLSRLNNDPGPHLVVCPASVLENWERELRKWCPSFTVLQYHGAARAAYSRELNSLSKAGKPPPFNVLLVCYSLFERHSEQQKDDRKVLKRWRWSCVLMDEAHALKDKNSYRWKNLMSVARNANQRLMLTGTPLQNDLHELWSLLEFMLPDIFTTENVDLKKLLNAEDTELITRMKSILGPFILRRLKSDVMQQLVPKIQRVEYVLMERKQEDAYKEAIEEYRAASQARLVKLSSKSLNSLAKALPKRQISNYFTQFRKIANHPLLIRRIYSDEDVIRIARKLHPIGAFGFECSLDRVIEEVKGFNDFRIHQLLFQYGVNDTKGTLSDKHVMLSAKCRTLAELLPSMKKSGHRVLIFSQWTSMLDILEWTLDVIGVTYRRLDGSTQVTDRQTIVDTFNNDKSIFACLLSTRAGGQGLNLTGADTVIIHDMDFNPQIDRQAEDRCHRIGQTKPVTIFRLVTKSTVDENIYEIAKRKLVLDAAVLESGVHVDDNGDTPEKTMGEILASLLMG
binding (SUVR2-Flag (Arabidopsis) [2]): binds
